Source: publication PMC4336329 (PLoS ONE, 2015)
The whole screen tested about 310,000 compounds, of which about 14,000 (4.5%) showed an effect of 50% or more. Effects have a minus sign here. The list shows a part of the results.

Molecular target: human ether-à-go-go-related gene (hERG) potassium channel (human, UniProt Q12809)
Experiment: primary screen, population patch clamp on CHO cells stably expressing hERG
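Note: peak tail current of the secondary pulse compared with the same well before compound.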

human ether-à-go-go-related gene (hERG) potassium channel, sequence (Q12809 whole entry, looked up): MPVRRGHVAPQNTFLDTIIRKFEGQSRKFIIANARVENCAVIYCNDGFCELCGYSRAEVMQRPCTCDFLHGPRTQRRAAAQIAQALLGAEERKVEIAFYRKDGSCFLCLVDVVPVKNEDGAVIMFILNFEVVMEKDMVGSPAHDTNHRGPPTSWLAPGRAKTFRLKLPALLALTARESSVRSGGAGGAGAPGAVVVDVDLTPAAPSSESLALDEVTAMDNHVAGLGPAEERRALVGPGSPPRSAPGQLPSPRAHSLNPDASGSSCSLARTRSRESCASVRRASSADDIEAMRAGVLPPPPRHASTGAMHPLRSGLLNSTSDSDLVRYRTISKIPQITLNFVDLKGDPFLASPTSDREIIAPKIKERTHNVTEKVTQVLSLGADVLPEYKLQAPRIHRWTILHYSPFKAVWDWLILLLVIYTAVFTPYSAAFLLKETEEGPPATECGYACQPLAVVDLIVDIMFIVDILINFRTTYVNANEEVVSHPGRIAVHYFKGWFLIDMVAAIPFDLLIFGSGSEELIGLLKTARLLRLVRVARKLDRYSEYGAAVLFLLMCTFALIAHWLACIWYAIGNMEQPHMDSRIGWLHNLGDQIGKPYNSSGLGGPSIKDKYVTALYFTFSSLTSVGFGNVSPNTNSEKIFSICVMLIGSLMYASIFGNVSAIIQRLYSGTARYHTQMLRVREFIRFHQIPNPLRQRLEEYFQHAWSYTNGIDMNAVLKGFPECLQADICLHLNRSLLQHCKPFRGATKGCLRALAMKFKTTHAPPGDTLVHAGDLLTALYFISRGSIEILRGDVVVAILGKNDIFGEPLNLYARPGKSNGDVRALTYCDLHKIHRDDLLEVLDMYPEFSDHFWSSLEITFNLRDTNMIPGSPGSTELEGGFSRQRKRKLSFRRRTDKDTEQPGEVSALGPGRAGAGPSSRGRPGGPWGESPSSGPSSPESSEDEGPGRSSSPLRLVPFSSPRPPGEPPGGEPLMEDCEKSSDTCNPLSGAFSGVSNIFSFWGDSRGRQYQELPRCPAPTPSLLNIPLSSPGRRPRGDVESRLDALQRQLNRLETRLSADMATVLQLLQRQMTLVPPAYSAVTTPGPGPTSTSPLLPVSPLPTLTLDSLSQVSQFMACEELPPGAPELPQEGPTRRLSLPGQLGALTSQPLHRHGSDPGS

SMILES	hERG current change (%, negative = inhibition) at 10uM [%]
CN1C(=O)/C(=C/c2ccccc2OCc2ccccc2)NC1=S	11.5
Cc1cc(C(=O)CN2C(=O)NC(C)(CC(C)C)C2=O)c(C)n1-c1ccc2c(c1)OCO2 (stereo not drawn)	-23.5
Cc1ccccc1CC1(CO)CCCN(Cc2nc(-c3cccs3)oc2C)C1 (stereo not drawn)	-61.1
Cc1cc(C)c(OCC(=O)N(Cc2cccs2)C2CCS(=O)(=O)C2)c(C)c1 (stereo not drawn)	-37.6
CC(C)(C)c1cc(-c2csc(Nc3ccccc3)[n+]2Cc2ccc(C(=O)O)cc2)cc(C(C)(C)C)c1O.[Br-]	5.72
C/C(=N/Nc1ncc(Br)cn1)c1ccc([N+](=O)[O-])cc1	-41.8
O=C(COc1cc(F)ccc1[N+](=O)[O-])Nc1ccc(N2CCCCC2)cc1	-11
CCOc1ccc(S(=O)(=O)NCC2CCCO2)cc1 (stereo not drawn)	-2.45
CN1C(=O)/C(=C\c2ccco2)N=C1c1ccc(Cl)cc1Cl	-8.63
O=c1c2c(nc3cc(-c4cccc(F)c4)[nH]n13)CCC2	1.59
O=C(Nc1ccnn1C1CCN(C2CCCCC2)CC1)c1ccccc1	-25.8
COc1cc(Cl)c(S(=O)(=O)N2CCOCC2)cc1Cl	-7.29
O=C(O)c1cnc(-c2ccccc2)nc1Sc1ccc(Cl)cc1Cl	7.31
O=C(Cc1cccs1)N(CC1CCCO1)C1(C(=O)NC2CCCCC2)CCCCC1 (stereo not drawn)	7.23
CCOP(=O)(OCC)C(NC(=O)NS(=O)(=O)c1ccc(C)cc1)c1ccccc1 (stereo not drawn)	14.3
COC(=O)C1=C(C)NC(=O)CC1c1cc(Br)ccc1F (stereo not drawn)	15.9
CCOc1cc(/C=N/NC(=O)C2CCCC2)ccc1OC(C)C	17.5
COc1ccc(CC(NC(C)=O)C(=O)NC2CCN(C(=O)C3CCCCC3)CC2)c(OC)c1 (stereo not drawn)	22.9
S=C1CSc2ccccc2N1	0.736
CCCCn1c(O)c(/C=N/NC(=O)c2ccncc2)c(=O)[nH]c1=O	18.1
COC(=O)c1[nH]c(C)c(/C(O)=C2\C(=O)C(=O)N(CCN3CCOCC3)C2c2ccccc2OC)c1C (stereo not drawn)	12.8
COc1ccc(N(C(=O)C(C)C)S(=O)(=O)c2ccc3c(c2)n(C)c(=O)n3C)cc1	-7.63
CN(C(=O)c1ccncc1)C1CC(C)(C)N(O)C(C)(C)C1	2.32

SMILES	hERG current change (%, negative = inhibition) at 10uM [%]
C=CCNC(=O)c1ccc(Cl)cc1Cl	11.8
COC(=O)[C@H]1[C@H]2C[C@@H]3c4[nH]c5cc(OC)ccc5c4CCN3C[C@H]2C[C@@H](OC(=O)c2ccc(N)cc2)[C@@H]1OC	-41.2
CCn1c(CNC(=O)c2ccccc2)nc2ccccc21	-1.43
COc1ccc(Nc2nc(Cl)nc(N3CCN(c4ccc(OC)cc4)CC3)n2)cc1	21.4
C1=C(CCNCC2CC2)CCCC1.Cl	1.5
Cc1ccc(S(=O)(=O)CCc2nnc(NC(=O)c3cccs3)s2)cc1	-20.6
CCc1ccc(C(O)(CNCc2ccccc2)c2ccccc2)cc1 (stereo not drawn)	-41.6
Cc1c(NC(=O)CSc2ccc(Cl)cc2)cccc1-c1nc2ncccc2o1	-14.1
CNS(=O)(=O)c1ccc(NC(=O)c2csc(C)c2)cc1	-9.46
COC(=O)CCCCC(=O)C1C(=O)CC(C)(C)C(C(=O)OC)C1=O (stereo not drawn)	3.34
O=C(O)c1ccc(F)c(S(=O)(=O)Nc2ccccc2)c1	11.8
COc1cc(OC)c(/C=N/NC(=O)c2ccncc2)cc1Br	11.5
COc1cccc(-c2nc(-c3ccccc3)no2)c1	1.72
CCOc1ccccc1CN(CCc1ccc2c(c1)OCO2)Cc1ccccn1	-64.4
CCC(C)Nc1nc(Cl)nc(NCCOc2ccccc2)n1 (stereo not drawn)	-1.39
Cc1cc(C(=O)OCC(=O)Nc2ccccc2C)c(C)o1	4.98
O=C(c1cc(-c2cccc(O)c2)on1)N1CCOCC1	20.5
CN(C(=O)/C=C/c1ccccc1)C1CCCCC1	1.32
CCN(C(=O)c1ccc(=O)[nH]c1)c1c(N)n(Cc2ccccc2)c(=O)[nH]c1=O	-8.25
COc1ccc(N2C(=O)C(CN3CCN(C)CC3)C2c2ccccc2)cc1 (stereo not drawn)	-16
CCOC(=O)C1CCCN(CCCc2ccccc2)C1.Cl (stereo not drawn)	-46.3
CC1CCCC(C)N1/N=C/c1ccc(O)c(O)c1 (stereo not drawn)	1.18
